Data reported in PubChem BioAssay AID1508624 (National Center for Advancing Translational Sciences (NCATS), 2021).
Among all 48,000 compounds or so, about 120 (0.25%) were called active. Another 4% or so got no clear call; they are omitted. Calls follow the shape of the dose curve; as a rule, active = well fitted activation curve with a large enough effect; inconclusive = small, poorly fitted or top-dose-only effect, or another doubt; inactive = no such curve, though single readings can be large or run the other way. This is one part of the list.

test: Primary qHTS for Identification of Small Molecule Activators of Huntingtin-Antisense Promoter Activity; settings: HEK293 HTT-AS promoter firefly luciferase reporter (activity 0% = vehicle and -100% = no light), 24 h; series mostly up to 57.5 µM; activity change, positive = activation: at the top concentration; also: nearly all actives have a fitted effect of over 55% in size
Method in brief: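 Firefly luciferase readout (Dual-Glo, 10 min RT) after 24 h, 37 °C compound exposure (final up to 57.5 uM) of HEK293 reporter cells cultured 24 h beforehand; PTC124 at 50 uM final as control inhibitor; activity scaled vehicle 0%, zero RLU -100%.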

Structure (SMILES)	activity change, positive = activation
CCc1ccccc1Nc1nn2c(=O)c3ccc(C(=O)NCc4ccc(C)cc4)cc3nc2s1	inactive: -32.1%
NC(=O)c1ccc(N(C(N)=O)c2c(F)cccc2F)nc1-c1ccc(F)cc1F	inactive: -14.1%
O=C(NC1CCCCCC1)C1CCN(C(=O)N2CCOc3ccc(Cl)cc32)CC1	inactive: -11.5%
CCCCc1nn2c(=O)cc(COC(=O)c3cccc(NC(=O)COc4ccccc4)c3)nc2s1	inactive: 25%
Cc1ccc(C2=NN(CC(=O)NCCCN(CC(C)C)CC(C)C)C(=O)CC2)cc1	inactive: -5.78%
Cc1cc2[nH]c(=O)c(=O)[nH]c2cc1S(=O)(=O)NCc1ccc(F)cc1	inactive: -12%
CCOCCCNC(=O)c1ccc2c(c1)NC(=O)C(CS(=O)(=O)Cc1ccc(F)cc1Cl)N2 (stereo unspecified)	inactive: -20.9%
Cc1cc(C)n(-c2nc3ccccc3nc2Nc2ccc(C(C)C)cc2)n1	inactive: 1.22%
O=C(Nc1ccc(Cl)cc1Cl)c1cc(S(=O)(=O)N2CCC3(CC2)OCCO3)ccc1F	inactive: -31.3%
CCN(CCCNC(=O)CSc1cc(=O)n(C)c2ccccc12)c1ccccc1	inactive: -2.72%
CCOc1cccc(NC(=O)C2CC(=O)N(C)C(=Nc3cccc(OC)c3)S2)c1 (stereo unspecified)	inactive: -28.2%
CCC(=O)OCC(=O)[C@@]1(OC(=O)CC)[C@@H](C)C[C@@H]2[C@H]3CCC4=CC(=O)C=C[C@]4(C)[C@@]3(F)[C@@H](O)C[C@@]21C	inactive: -25.2%
Cc1cc(C)c(NC(=O)C(C)n2c(=O)cc(C)c3c(C)nn(-c4ccccc4)c32)c(C)c1 (stereo unspecified)	inactive: 1.72%
O=C1CS(=O)(=O)C2(C(=O)Nc3ccccc32)N1c1cccc(Cl)c1 (stereo unspecified)	inactive: -14%
COc1cccc2c1cc1c(=O)n(CC(=O)N3CCN(c4ccccc4F)CC3)nc(C)n12	inactive: -11.2%
CCOc1ccc(NC(=O)CCCc2nc(-c3cccc(OC)c3)no2)cc1	inactive: -3.15%
Cc1ccc(CNC(=O)c2sc3nc(C)cc(C)c3c2-n2cccc2)cc1	inactive: -3.43%
CC(C)(C)C(=O)Nc1cc(-c2cccc(Br)c2)nn1-c1ccccc1	inactive: -2.52%
CCOC(=O)c1ccc(NC(=O)CSc2nc3ncc(Br)c(C)c3[nH]2)cc1	inactive: 6.93%
CC(=O)Oc1ccccc1C(=O)Nc1ncc([N+](=O)[O-])s1	inactive
COCCCNC(=O)c1ccc(Cn2c(=O)c3ccccc3n(CC(N)=O)c2=O)cc1	inactive: -17.6%
CCC(=O)N1c2ccccc2CC1C(=O)NCCCN1CCN(c2cc(C)ccc2C)CC1 (stereo unspecified)	inactive: -22.8%
COc1ccc(-c2cc3nc(N)cc(=O)n3[nH]2)cc1	inactive: 16.8%
CCN(C(=O)c1ccc2c(c1)N(Cc1cccc(Cl)c1)C(=O)c1ccccc1S2=O)c1ccccc1 (stereo unspecified)	inactive: -61.4%
O=C(NCCCc1nc2ccccc2n1Cc1ccc(F)cc1)C1CCCCC1	inactive: -20.7%
Cc1ccc(C)c(CSc2nc3c([nH]c4ccccc43)c(=O)n2C)c1	inactive: -5.89%
